# Data taken from the supplement of paper PMC8728848.
# The other results are listed elsewhere or left out.
# B1: GS13455A-bfa-343-25-343 (Bacteroides fragilis) (protein)
# chain: KDEIQIVDQDTSWQMDNKYIEEDIREQLGIDPFTDLVYLGYYGNPYTQLEAINDLVNTTLVGKNELSFKVKVTKPYKEDIKVNLMKEDKLVTDFPEMAEGIPLFPSENCTFEGGVLKAGELETTVKLTLKDVEKLNNLSGYVMAIKLTMEGSHEHLAIARTRSSYFVKLNLSIRLDNIDSSNKKIEGKGFNKEISFKSDIRPDKLGSLNDGNFTANNWYTSNANNYLTIILPEKQSLKGFRLDTNTSPSGSYMLKSCRVMVETPDGNWVNHGVFDRKSMDGIAYISFKKPVECTKVRFENMMAFNGRFSVDVNEVTAFR
# Legend:
# Assay in all cases: glycan array binding signal (z-score within array); higher = stronger binding
# Conditions in all cases: glycan notation: IUPAC condensed, linker removed
# [1] = molecular target: Fuc(a1-3)[Gal3S(b1-4)]GlcNAc6S
# Outline: (§1)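 Glycan array binding is given as a within-array Z-score, which can be read as non-binding when negative. The arrays, 3228 of them, came from the Consortium for Functional Glycomics database and were retained only where the protein sequence was available. Z-scores were averaged across arrays of the same protein sequence at different concentrations or buffers and across linkers.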
# [2] = molecular target: Fuc(a1-3)[GalNAc(b1-4)]GlcNAc
# Outline: as §1
# [3] = molecular target: Fuc(a1-3)[GalNAc(b1-4)]GlcNAc6S
# Outline: as §1
# Fuc(a1-4)GlcNAc = molecular target: Fuc(a1-4)GlcNAc
# Outline: as §1
# Fuc(b1-3)GlcNAc = molecular target: Fuc(b1-3)GlcNAc
# Outline: as §1
# Gal(a1-2)Gal = molecular target: Gal(a1-2)Gal
# Outline: as §1
# Gal(a1-3)Gal = molecular target: Gal(a1-3)Gal
# Outline: as §1
# Gal(a1-3)Gal(b1-3)GlcNAc = molecular target: Gal(a1-3)Gal(b1-3)GlcNAc
# Outline: as §1
# [4] = molecular target: Gal(a1-3)Gal(b1-3)GlcNAc(b1-2)Man
# Outline: as §1
# [5] = molecular target: Gal(a1-3)Gal(b1-3)GlcNAc(b1-2)Man(a1-3)[Gal(a1-3)Gal(b1-3)GlcNAc(b1-2)Man(a1-6)]Man(b1-4)GlcNAc(b1-4)GlcNAc
# Outline: as §1
# [6] = molecular target: Gal(a1-3)Gal(b1-3)GlcNAc(b1-3)GalNAc
# Outline: as §1
# [7] = molecular target: Gal(a1-3)Gal(b1-3)GlcNAc(b1-6)GalNAc
# Outline: as §1
# [8] = molecular target: Gal(a1-3)Gal(b1-3)[Fuc(a1-4)]GlcNAc(b1-2)Man(a1-3)[Gal(a1-3)Gal(b1-3)[Fuc(a1-4)]GlcNAc(b1-2)Man(a1-6)]Man(b1-4)GlcNAc(b1-4)GlcNAc
# Outline: as §1
# Gal(a1-3)Gal(b1-4)Glc = molecular target: Gal(a1-3)Gal(b1-4)Glc
# Outline: as §1
# Gal(a1-3)Gal(b1-4)GlcNAc = molecular target: Gal(a1-3)Gal(b1-4)GlcNAc
# Outline: as §1
# [9] = molecular target: Gal(a1-3)Gal(b1-4)GlcNAc(b1-2)Man
# Outline: as §1
# [10] = molecular target: Gal(a1-3)Gal(b1-4)GlcNAc(b1-2)Man(a1-3)[Gal(a1-3)Gal(b1-4)GlcNAc(b1-2)Man(a1-6)]Man(b1-4)GlcNAc(b1-4)GlcNAc
# Outline: as §1
# [11] = molecular target: Gal(a1-3)Gal(b1-4)GlcNAc(b1-3)GalNAc
# Outline: as §1
# [12] = molecular target: Gal(a1-3)Gal(b1-4)GlcNAc(b1-6)GalNAc
# Outline: as §1
# [13] = molecular target: Gal(a1-3)Gal(b1-4)[Fuc(a1-3)]GlcNAc
# Outline: as §1
# [14] = molecular target: Gal(a1-3)Gal(b1-4)[Fuc(a1-3)]GlcNAc(b1-2)Man(a1-3)[Gal(a1-3)Gal(b1-4)[Fuc(a1-3)]GlcNAc(b1-2)Man(a1-6)]Man(b1-4)GlcNAc(b1-4)GlcNAc
# Outline: as §1
# Gal(a1-3)GalNAc = molecular target: Gal(a1-3)GalNAc
# Outline: as §1
# [15] = molecular target: Gal(a1-3)[Gal(a1-4)]Gal(b1-4)GlcNAc
# Outline: as §1
# [16] = molecular target: Gal(a1-4)Gal(b1-3)GlcNAc(b1-2)Man(a1-3)[Gal(a1-4)Gal(b1-3)GlcNAc(b1-2)Man(a1-6)]Man(b1-4)GlcNAc(b1-4)GlcNAc
# Outline: as §1
# Gal(a1-4)Gal(b1-4)Glc = molecular target: Gal(a1-4)Gal(b1-4)Glc
# Outline: as §1
# Gal(a1-4)Gal(b1-4)GlcNAc = molecular target: Gal(a1-4)Gal(b1-4)GlcNAc
# Outline: as §1
# [17] = molecular target: Gal(a1-4)Gal(b1-4)GlcNAc(b1-2)Man(a1-3)[Gal(a1-4)Gal(b1-4)GlcNAc(b1-2)Man(a1-6)]Man(b1-4)GlcNAc(b1-4)GlcNAc
# Outline: as §1
# [18] = molecular target: Gal(a1-4)Gal(b1-4)GlcNAc(b1-3)Gal(b1-4)Glc
# Outline: as §1
# Gal(a1-4)GlcNAc = molecular target: Gal(a1-4)GlcNAc
# Outline: as §1
# Gal(a1-6)Glc = molecular target: Gal(a1-6)Glc
# Outline: as §1
# Gal(b1-2)Gal = molecular target: Gal(b1-2)Gal
# Outline: as §1
# Gal(b1-3)Gal = molecular target: Gal(b1-3)Gal
# Outline: as §1
# Gal(b1-3)Gal(b1-4)GlcNAc = molecular target: Gal(b1-3)Gal(b1-4)GlcNAc
# Outline: as §1
# Gal(b1-3)GalNAc = molecular target: Gal(b1-3)GalNAc
# Outline: as §1
# [19] = molecular target: Gal(b1-3)GalNAc(a1-3)[Fuc(a1-2)]Gal(b1-4)Glc
# Outline: as §1
# [20] = molecular target: Gal(b1-3)GalNAc(a1-3)[Fuc(a1-2)]Gal(b1-4)GlcNAc
# Outline: as §1
# Gal(b1-3)GalNAc(b1-3)Gal = molecular target: Gal(b1-3)GalNAc(b1-3)Gal
# Outline: as §1
# [21] = molecular target: Gal(b1-3)GalNAc(b1-3)Gal(a1-4)Gal(b1-4)Glc
# Outline: as §1
# [22] = molecular target: Gal(b1-3)GalNAc(b1-4)Gal(b1-4)Glc
# Outline: as §1
# [23] = molecular target: Gal(b1-3)GalNAc(b1-4)[Neu5Ac(a2-3)]Gal(b1-4)Glc
# Outline: as §1
# Gal(b1-3)GlcNAc = molecular target: Gal(b1-3)GlcNAc
# Outline: as §1
# [24] = molecular target: Gal(b1-3)GlcNAc(a1-3)Gal(b1-4)GlcNAc
# Outline: as §1
# [25] = molecular target: Gal(b1-3)GlcNAc(a1-6)Gal(b1-4)GlcNAc
# Outline: as §1
# Gal(b1-3)GlcNAc(b1-2)Man = molecular target: Gal(b1-3)GlcNAc(b1-2)Man
# Outline: as §1
# [26] = molecular target: Gal(b1-3)GlcNAc(b1-2)Man(a1-3)[Gal(b1-3)GlcNAc(b1-2)Man(a1-6)]Man(b1-4)GlcNAc(b1-4)GlcNAc
# Outline: as §1
binder,measurement,setting,value
B1,glycan array binding signal (z-score),[1],0.461
same,glycan array binding signal (z-score),[2],0.55
same,glycan array binding signal (z-score),[3],-0.628
same,glycan array binding signal (z-score),Fuc(a1-4)GlcNAc,20.2
same,glycan array binding signal (z-score),Fuc(b1-3)GlcNAc,0.123
same,glycan array binding signal (z-score),Gal(a1-2)Gal,-0.391
same,glycan array binding signal (z-score),Gal(a1-3)Gal,0.005
same,glycan array binding signal (z-score),Gal(a1-3)Gal(b1-3)GlcNAc,0.317
same,glycan array binding signal (z-score),[4],0.026
same,glycan array binding signal (z-score),[5],-0.044
same,glycan array binding signal (z-score),[6],-0.278
same,glycan array binding signal (z-score),[7],-0.515
same,glycan array binding signal (z-score),[8],0.372
same,glycan array binding signal (z-score),Gal(a1-3)Gal(b1-4)Glc,-0.29
same,glycan array binding signal (z-score),Gal(a1-3)Gal(b1-4)GlcNAc,-0.51
same,glycan array binding signal (z-score),[9],-0.548
same,glycan array binding signal (z-score),[10],-0.3
same,glycan array binding signal (z-score),[11],0.418
same,glycan array binding signal (z-score),[12],-0.675
same,glycan array binding signal (z-score),[13],0.787
same,glycan array binding signal (z-score),[14],0.922
same,glycan array binding signal (z-score),Gal(a1-3)GalNAc,-0.132
same,glycan array binding signal (z-score),[15],1.91
same,glycan array binding signal (z-score),[16],-0.925
same,glycan array binding signal (z-score),Gal(a1-4)Gal(b1-4)Glc,-0.076
same,glycan array binding signal (z-score),Gal(a1-4)Gal(b1-4)GlcNAc,0.408
same,glycan array binding signal (z-score),[17],-0.283
same,glycan array binding signal (z-score),[18],-0.485
same,glycan array binding signal (z-score),Gal(a1-4)GlcNAc,-0.648
same,glycan array binding signal (z-score),Gal(a1-6)Glc,-0.664
same,glycan array binding signal (z-score),Gal(b1-2)Gal,-0.706
same,glycan array binding signal (z-score),Gal(b1-3)Gal,-0.383
same,glycan array binding signal (z-score),Gal(b1-3)Gal(b1-4)GlcNAc,-0.061
same,glycan array binding signal (z-score),Gal(b1-3)GalNAc,-0.233
same,glycan array binding signal (z-score),[19],-0.504
same,glycan array binding signal (z-score),[20],-0.147
same,glycan array binding signal (z-score),Gal(b1-3)GalNAc(b1-3)Gal,0.012
same,glycan array binding signal (z-score),[21],0.625
same,glycan array binding signal (z-score),[22],-0.178
same,glycan array binding signal (z-score),[23],-0.051
same,glycan array binding signal (z-score),Gal(b1-3)GlcNAc,0.752
same,glycan array binding signal (z-score),[24],0.493
same,glycan array binding signal (z-score),[25],1.12
same,glycan array binding signal (z-score),Gal(b1-3)GlcNAc(b1-2)Man,1.35
same,glycan array binding signal (z-score),[26],-0.161
